From a collection of fitness landscapes (doi:10.1126/science.1257360)
Some of the results follow.

B1: PhoQ; a variant is named by its letters at X, in order, P23837 (parent)
chain: MKKLLRLFFPLSLRVRFLLATAAVVLVLSLAYGMVALIGYSVSFDKTTFRLLRGESNLFYTLAKWENNKLHVELPENIDKQSPTMTLIYDENGQLLWAQRDVPWLMKMIQPDWLKSNGFHEIEADVNDTSLLLSGDHSIQQQLQEVREDDDDAEMTHSVAVNVYPATSRMPKLTIVVVDTIPVELKSSYMVWSWFIYVLSANLLLVIPLLWVAAWWSLRPIEALAKEVRELEEHNRELLNPATTRELTSLVRNLNRLLKSERERYDKYRTTLTDLTHSLKTPLXXLQXXLRSLRSEKMSVSDAEPVMLEQISRISQQIGYYLHRASMRGGTLLSRELHPVAPLLDNLTSALNKVYQRKGVNISLDISPEISFVGEQNDFVEVMGNVLDNACKYCLEFVEISARQTDEHLYIVVEDDGPGIPLSKREVIFDRGQRVDTLRPGQGVGLAVAREITEQYEGKIVAGESMLGGARMEVIFGRQHSAPKDE

Variants of: B1
Assay: enrichment ratio after two sorts for PhoP signalling (ratio (wild type AVST 3.29)); higher = more functional
Details: with PhoP (E. coli)

| Variant | enrichment ratio |
| --- | --- |
| SFYN | ≤ 0.25 |
| LTDS | ≤ 0.25 |
| PCTV | ≤ 0.25 |
| SMYL | ≤ 0.25 |
| YDDD | ≤ 0.25 |
| HTLV | ≤ 0.25 |
| LCMP | ≤ 0.25 |
| LSTE | ≤ 0.25 |
| RIAC | ≤ 0.25 |
| LWDA | ≤ 0.25 |
| YYDA | ≤ 0.25 |
| VRDL | ≤ 0.25 |
| SNFI | ≤ 0.25 |
| MADE | ≤ 0.25 |
| FICF | 5.34 |
| PFAE | ≤ 0.25 |
| AKNS | ≤ 0.25 |
| TLQD | ≤ 0.25 |
| STCK | 12.3 |
| TSVN | 5.59 |
| DCNI | ≤ 0.25 |
| LKVA | ≤ 0.25 |
| QNLH | ≤ 0.25 |
| LQWN | ≤ 0.25 |

| Variant | enrichment ratio |
| --- | --- |
| EVKF | ≤ 0.25 |
| VPPY | ≤ 0.25 |
| RYIE | ≤ 0.25 |
| TMYY | ≤ 0.25 |
| WVPG | ≤ 0.25 |
| MWCY | ≤ 0.25 |
| LRCH | ≤ 0.25 |
| GEYD | ≤ 0.25 |
| RCHS | ≤ 0.25 |
| EYDH | ≤ 0.25 |
| WIFH | ≤ 0.25 |
| GPFN | ≤ 0.25 |
| LKGL | ≤ 0.25 |
| ECDC | ≤ 0.25 |
| MFEQ | ≤ 0.25 |
| TCFI | ≤ 0.25 |
| GVAH | 0.601 |
| IIGV | ≤ 0.25 |
| FHFP | ≤ 0.25 |
| MKLH | ≤ 0.25 |
| WRSH | ≤ 0.25 |
| VNTE | ≤ 0.25 |
| FCTN | ≤ 0.25 |
| GETY | 11.2 |

| Variant | enrichment ratio |
| --- | --- |
| TWTF | ≤ 0.25 |
| WVGK | ≤ 0.25 |
| VSCG | ≤ 0.25 |
| KQIS | ≤ 0.25 |
| WTTS | ≤ 0.25 |
| AEME | 29.5 |
| WGVL | ≤ 0.25 |
| GCVL | 0.463 |
| FKNN | ≤ 0.25 |
| VRYY | ≤ 0.25 |
| YLQR | ≤ 0.25 |
| KNFQ | ≤ 0.25 |
| GGPI | ≤ 0.25 |
| LALD | ≤ 0.25 |
| AIWY | ≤ 0.25 |
| VCLI | 5.48 |
| DTKD | ≤ 0.25 |
| NHEP | ≤ 0.25 |
| VGAF | ≤ 0.25 |
| LFQS | ≤ 0.25 |
| EGQS | ≤ 0.25 |
| FSIH | ≤ 0.25 |
| TSIK | ≤ 0.25 |
| EKMV | ≤ 0.25 |

| Variant | enrichment ratio |
| --- | --- |
| AYCL | ≤ 0.25 |
| YAKW | ≤ 0.25 |
| KVAI | ≤ 0.25 |
| WCKW | ≤ 0.25 |
| TALH | 6.21 |
| PWWV | ≤ 0.25 |
| DIIL | ≤ 0.25 |
| KYHS | ≤ 0.25 |
| RRFI | ≤ 0.25 |
| GIII | 9.25 |
| WEIW | ≤ 0.25 |
| GTHK | ≤ 0.25 |
| VTTT | ≤ 0.25 |
| VWLA | ≤ 0.25 |
| WIGD | ≤ 0.25 |
| RFHH | ≤ 0.25 |
| DFGC | ≤ 0.25 |
| AHEP | ≤ 0.25 |
| MAQI | ≤ 0.25 |
| LIAG | ≤ 0.25 |
| MPHG | ≤ 0.25 |
| PSHW | ≤ 0.25 |
| RKST | ≤ 0.25 |
| MTML | 4.85 |

| Variant | enrichment ratio |
| --- | --- |
| GTGC | ≤ 0.25 |
| SDDQ | ≤ 0.25 |
| KNFP | ≤ 0.25 |
| PKDE | ≤ 0.25 |
| ENAH | ≤ 0.25 |
| VCQP | ≤ 0.25 |
| QRWR | ≤ 0.25 |
| GKDI | ≤ 0.25 |
| SICR | 9 |
| FPQQ | ≤ 0.25 |
| TISS | 11.9 |
| LRGN | ≤ 0.25 |
| NHAC | ≤ 0.25 |
| STCC | 13.7 |
| LDHP | ≤ 0.25 |
| PVRF | ≤ 0.25 |
| FLHK | ≤ 0.25 |
| VSRF | ≤ 0.25 |
| MCLW | ≤ 0.25 |
| HFHY | ≤ 0.25 |
| SVKR | ≤ 0.25 |
| YFHR | ≤ 0.25 |
| TWTV | ≤ 0.25 |
| LAYA | ≤ 0.25 |

| Variant | enrichment ratio |
| --- | --- |
| HWYW | ≤ 0.25 |
| GFWR | ≤ 0.25 |
| LKSY | ≤ 0.25 |
| GLYG | ≤ 0.25 |
| NDIM | ≤ 0.25 |
| QMWV | ≤ 0.25 |
| GYRL | ≤ 0.25 |
| QFDH | ≤ 0.25 |
| WSMC | ≤ 0.25 |
| IHNN | ≤ 0.25 |
| HQES | ≤ 0.25 |
| ATVQ | 13.9 |
| AEML | 14.4 |
| QENT | ≤ 0.25 |
| GPPL | ≤ 0.25 |
| GINH | ≤ 0.25 |
| GGAT | ≤ 0.25 |
| VEQP | ≤ 0.25 |
| HGEG | ≤ 0.25 |
| DVST | ≤ 0.25 |
| FQKS | ≤ 0.25 |
| AEPN | ≤ 0.25 |
| TTMG | 8.18 |
| ETWS | ≤ 0.25 |

| Variant | enrichment ratio |
| --- | --- |
| YAGV | ≤ 0.25 |
| HRPF | 0.462 |
| VCNH | ≤ 0.25 |
| CRFS | ≤ 0.25 |
| QRWP | ≤ 0.25 |
| YDAV | ≤ 0.25 |
| GEMF | ≤ 0.25 |
| RATG | ≤ 0.25 |
| IHGF | ≤ 0.25 |
| HSVQ | ≤ 0.25 |
| EISH | ≤ 0.25 |
| WEFN | ≤ 0.25 |
| NDAS | ≤ 0.25 |
| MFVN | ≤ 0.25 |
| FMCL | 4.06 |
| WANL | ≤ 0.25 |
| LFVN | ≤ 0.25 |
| TCQQ | 11.5 |
| KTFW | ≤ 0.25 |
| MFWQ | ≤ 0.25 |
| YVRV | ≤ 0.25 |
| SGSD | ≤ 0.25 |
| VDCW | ≤ 0.25 |
| QLCS | ≤ 0.25 |

| Variant | enrichment ratio |
| --- | --- |
| GVPR | ≤ 0.25 |
| QYVK | ≤ 0.25 |
| ILQP | ≤ 0.25 |
| YKDH | ≤ 0.25 |
| YRHS | ≤ 0.25 |
| RWTR | ≤ 0.25 |
| DRQG | ≤ 0.25 |
| VIQK | ≤ 0.25 |
| PAWL | ≤ 0.25 |
| SAMG | 5.01 |
| QHNI | 8.51 |
| ILAY | ≤ 0.25 |
| DSFC | ≤ 0.25 |
| NRLF | ≤ 0.25 |
| RFND | ≤ 0.25 |
| WEIG | ≤ 0.25 |
| GMVV | ≤ 0.25 |
| FMEP | ≤ 0.25 |
| KLVQ | ≤ 0.25 |
| TICE | ≤ 0.25 |
| GTID | ≤ 0.25 |
| GDGA | ≤ 0.25 |
| PHHS | ≤ 0.25 |
| QCTR | ≤ 0.25 |

| Variant | enrichment ratio |
| --- | --- |
| YLLG | ≤ 0.25 |
| THGT | ≤ 0.25 |
| FQDD | ≤ 0.25 |
| ICLC | 5.6 |
| YHTN | ≤ 0.25 |
| EHPM | ≤ 0.25 |
| FFDR | ≤ 0.25 |
| TGGM | ≤ 0.25 |
| IPYV | ≤ 0.25 |
| QPFR | 0.836 |
| YAHI | ≤ 0.25 |
| RCSS | ≤ 0.25 |
| TDLE | ≤ 0.25 |
| VFSL | ≤ 0.25 |
| ARGR | ≤ 0.25 |
| ACGM | ≤ 0.25 |
| NVPL | ≤ 0.25 |
| LDNL | ≤ 0.25 |
| GHDR | ≤ 0.25 |
| YDGE | ≤ 0.25 |
| RYGF | ≤ 0.25 |
| SYYC | ≤ 0.25 |
| SSFL | 7.53 |
| MCYQ | 17.2 |

| Variant | enrichment ratio |
| --- | --- |
| FTQK | ≤ 0.25 |
| NGTP | ≤ 0.25 |
| YCIF | ≤ 0.25 |
| PWDP | ≤ 0.25 |
| MEFW | ≤ 0.25 |
| HAPG | ≤ 0.25 |
| DTRR | ≤ 0.25 |
| AMRV | ≤ 0.25 |
| DLDN | ≤ 0.25 |
| GIQD | ≤ 0.25 |
| GLLW | ≤ 0.25 |
| YYLN | ≤ 0.25 |
| NVWN | ≤ 0.25 |
| NYGV | ≤ 0.25 |
| EMGM | ≤ 0.25 |
| YYLH | ≤ 0.25 |
| LIPW | ≤ 0.25 |
| DMRG | ≤ 0.25 |
| IVPR | ≤ 0.25 |
| YTYH | ≤ 0.25 |
| LSIW | ≤ 0.25 |
| MYQR | ≤ 0.25 |
| KSCV | ≤ 0.25 |
| WKSN | ≤ 0.25 |

| Variant | enrichment ratio |
| --- | --- |
| KMTT | ≤ 0.25 |
| TLAG | 5.61 |
| DIHF | ≤ 0.25 |
| YMDF | ≤ 0.25 |
| MCKN | ≤ 0.25 |
| NERI | ≤ 0.25 |
| HEPP | ≤ 0.25 |
| IETA | ≤ 0.25 |
| QKQS | ≤ 0.25 |
| NPPR | ≤ 0.25 |
| QSGT | 7.41 |
| RLNY | ≤ 0.25 |
| WRMH | ≤ 0.25 |
| EYPY | ≤ 0.25 |
| SPGV | ≤ 0.25 |
| EAFK | ≤ 0.25 |
| IWCT | ≤ 0.25 |
| QRWD | ≤ 0.25 |
| DSTT | ≤ 0.25 |
| VICL | ≤ 0.25 |
| ICMS | 2.8 |
| SMKH | ≤ 0.25 |
| QQQF | ≤ 0.25 |
| ASLP | ≤ 0.25 |

| Variant | enrichment ratio |
| --- | --- |
| LGLF | ≤ 0.25 |
| GWNT | ≤ 0.25 |
| NFEG | ≤ 0.25 |
| IHIL | ≤ 0.25 |
| DHQI | ≤ 0.25 |
| GHPM | ≤ 0.25 |
| NKCS | ≤ 0.25 |
| HCHG | ≤ 0.25 |
| WHVI | ≤ 0.25 |
| MDEV | ≤ 0.25 |
| IMRC | ≤ 0.25 |
| MSGY | 8.56 |
| MDIK | ≤ 0.25 |
| MMIG | ≤ 0.25 |
| WGWH | ≤ 0.25 |
| HDDV | ≤ 0.25 |
| ERWY | ≤ 0.25 |
| QLYM | ≤ 0.25 |
| ANTH | 6.44 |
| ETTH | ≤ 0.25 |
| GWSQ | ≤ 0.25 |
| QGMW | ≤ 0.25 |
| WKSI | ≤ 0.25 |
| NCRG | ≤ 0.25 |

| Variant | enrichment ratio |
| --- | --- |
| FMWM | ≤ 0.25 |
| NCEW | ≤ 0.25 |
| RICF | ≤ 0.25 |
| WSVQ | ≤ 0.25 |
| FGDS | ≤ 0.25 |
| RNCQ | ≤ 0.25 |
| GDPS | ≤ 0.25 |
| DGWP | ≤ 0.25 |
| GMSV | 6.09 |
| MKVV | ≤ 0.25 |
| DACW | ≤ 0.25 |
| HRDQ | ≤ 0.25 |
| WTVN | ≤ 0.25 |
| TPGC | ≤ 0.25 |
| RWLR | ≤ 0.25 |
| EREC | ≤ 0.25 |
| IQMN | ≤ 0.25 |
| YCRV | ≤ 0.25 |
